Patent US20230322822A1, “ARYL PHOSPHOROUS OXIDE COMPOUNDS AND USE THEREOF” (Chengdu Di'ao Jiuhong Pharmaceutical Factory, priority 2020, published 2023)

Experiments:
[1] = system: Ba/F3 cells expressing EGFR-T790M/Del19; test: Cell anti-proliferation test 1 (CTG), BaF3 EGFR-T790M/Del19; settings: Mus musculus, BaF3, 72 h, read-out: EGFR-T790M/Del19 IC50
[2] = target: EGFR-C797S/T790M/L858R (Homo sapiens (Human), UniProt P00533, C797S/L858R/T790M); test: Enzymatic activity test (ADP-Glo) EGFR-C797S/T790M/L858R; type: biochemical; settings: kinase
Protocol: (§1) • 1. […] Test information:
(§2) To assess the effect of compounds on the activity of wild-type and mutant EGFR kinases, kinase activity was tested by measuring ATP consumption in an enzymatic reaction using an ADP-Glo (Promega Corporation) kit. Samples to be tested were dissolved in DMSO and diluted in a gradient. In a microplate, an EGFR kinase, a reaction buffer (containing Tris-HCl with a pH of 7.5, MgCl2, DTT and BSA), a kinase substrate Poly(Glu4, Tyr1) and a sample (a total volume of 20 μL per well) were added per well, while a blank control (no enzyme and sample) and a negative control (no sample) were set up; incubated for 15 minutes at 23° C.; added with 5 μL of ATP, and reacted at 23° C. for 60 minutes; added with ADP-Glo Reagent, and continuously reacted for 40 minutes at room temperature to inactivate the redundant ATP; then, added with a Kinase Detection Reagent, and reacted at room temperature for 30 minutes, then the chemiluminescence intensity L of each well was measured. […] IC50 values were calculated according to the above calculation using 4Parameter Logistic Model in XLfit software. • 3.

[3] = system: Ba/F3 cells expressing EGFR-T790M/L858R; test: Cell anti-proliferation test 1 (CTG), BaF3 EGFR-T790M/L858R; settings: Mus musculus, BaF3, 72 h, read-out: EGFR-T790M/L858R IC50
[4] = system: Ba/F3-EML-4-ALK-L1196M; test: Cell anti-proliferation test 3 (CTG), Ba/F3-EML-4-ALK-L1196M; type: cell-based; settings: Ba/F3 EML4-ALK-L1196M, 72 h, BaF3 cells, Day 3
[5] = target: EML4-ALK kinase (Homo sapiens (Human), UniProt Q9HC35+Q9UM73); test: Enzymatic activity test 2 (ADP-Glo) EML4-ALK kinase; type: biochemical
EML4-ALK kinase, sequence (Q9UM73 other isoform, or with tags, fused parts or gaps): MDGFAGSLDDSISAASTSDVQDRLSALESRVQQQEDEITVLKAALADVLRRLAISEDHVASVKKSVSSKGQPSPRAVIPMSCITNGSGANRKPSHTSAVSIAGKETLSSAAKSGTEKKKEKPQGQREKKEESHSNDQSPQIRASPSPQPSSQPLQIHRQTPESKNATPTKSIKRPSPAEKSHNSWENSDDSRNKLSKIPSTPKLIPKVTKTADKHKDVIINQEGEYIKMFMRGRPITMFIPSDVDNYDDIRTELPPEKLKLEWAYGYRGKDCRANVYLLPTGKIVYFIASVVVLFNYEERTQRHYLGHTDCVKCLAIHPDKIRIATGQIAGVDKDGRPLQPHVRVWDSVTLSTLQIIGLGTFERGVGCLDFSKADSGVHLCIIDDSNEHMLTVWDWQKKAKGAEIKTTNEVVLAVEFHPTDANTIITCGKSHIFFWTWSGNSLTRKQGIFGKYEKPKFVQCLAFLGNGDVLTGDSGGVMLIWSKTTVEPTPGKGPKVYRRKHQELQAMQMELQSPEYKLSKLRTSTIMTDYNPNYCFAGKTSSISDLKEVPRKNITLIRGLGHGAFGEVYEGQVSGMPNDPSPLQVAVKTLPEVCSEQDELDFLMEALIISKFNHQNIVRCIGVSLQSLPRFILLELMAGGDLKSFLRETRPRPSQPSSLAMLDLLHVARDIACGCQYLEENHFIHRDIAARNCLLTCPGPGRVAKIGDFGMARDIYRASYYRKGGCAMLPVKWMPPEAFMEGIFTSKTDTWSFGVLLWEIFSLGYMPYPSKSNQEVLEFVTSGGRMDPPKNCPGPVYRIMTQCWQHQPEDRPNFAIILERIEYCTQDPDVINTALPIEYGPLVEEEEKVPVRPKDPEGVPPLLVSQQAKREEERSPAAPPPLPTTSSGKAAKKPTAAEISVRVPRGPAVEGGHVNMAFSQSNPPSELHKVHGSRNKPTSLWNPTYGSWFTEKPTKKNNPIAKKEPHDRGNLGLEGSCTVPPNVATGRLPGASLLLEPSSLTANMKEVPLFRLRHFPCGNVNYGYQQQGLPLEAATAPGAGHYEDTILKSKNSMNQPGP
Protocol: as §1
as §2, with “EML4-ALK” for “wild-type and mutant EGFR”, “EML4-ALK” for “EGFR”, “IGF1” for “Poly(Glu4, Tyr1)”, “up;” for “up; incubated for 15 minutes at 23° C.;”, “kinase detection reagent,” for “Kinase Detection Reagent,”

[6] = system: Ba/F3 cells expressing EGFR-C797S/T790M/L858R; test: Cell anti-proliferation test 1 (CTG), BaF3 EGFR-C797S/T790M/L858R; settings: Mus musculus, BaF3, 72 h, read-out: EGFR-C797S/T790M/L858R IC50
[7] = target: EGFR-T790M/L858R (Homo sapiens (Human), UniProt P00533, L858R/T790M); test: Enzymatic activity test (ADP-Glo) EGFR-T790M/L858R; type: biochemical; settings: kinase
EGFR-T790M/L858R, sequence (P00533 25-1210 T790M/L858R): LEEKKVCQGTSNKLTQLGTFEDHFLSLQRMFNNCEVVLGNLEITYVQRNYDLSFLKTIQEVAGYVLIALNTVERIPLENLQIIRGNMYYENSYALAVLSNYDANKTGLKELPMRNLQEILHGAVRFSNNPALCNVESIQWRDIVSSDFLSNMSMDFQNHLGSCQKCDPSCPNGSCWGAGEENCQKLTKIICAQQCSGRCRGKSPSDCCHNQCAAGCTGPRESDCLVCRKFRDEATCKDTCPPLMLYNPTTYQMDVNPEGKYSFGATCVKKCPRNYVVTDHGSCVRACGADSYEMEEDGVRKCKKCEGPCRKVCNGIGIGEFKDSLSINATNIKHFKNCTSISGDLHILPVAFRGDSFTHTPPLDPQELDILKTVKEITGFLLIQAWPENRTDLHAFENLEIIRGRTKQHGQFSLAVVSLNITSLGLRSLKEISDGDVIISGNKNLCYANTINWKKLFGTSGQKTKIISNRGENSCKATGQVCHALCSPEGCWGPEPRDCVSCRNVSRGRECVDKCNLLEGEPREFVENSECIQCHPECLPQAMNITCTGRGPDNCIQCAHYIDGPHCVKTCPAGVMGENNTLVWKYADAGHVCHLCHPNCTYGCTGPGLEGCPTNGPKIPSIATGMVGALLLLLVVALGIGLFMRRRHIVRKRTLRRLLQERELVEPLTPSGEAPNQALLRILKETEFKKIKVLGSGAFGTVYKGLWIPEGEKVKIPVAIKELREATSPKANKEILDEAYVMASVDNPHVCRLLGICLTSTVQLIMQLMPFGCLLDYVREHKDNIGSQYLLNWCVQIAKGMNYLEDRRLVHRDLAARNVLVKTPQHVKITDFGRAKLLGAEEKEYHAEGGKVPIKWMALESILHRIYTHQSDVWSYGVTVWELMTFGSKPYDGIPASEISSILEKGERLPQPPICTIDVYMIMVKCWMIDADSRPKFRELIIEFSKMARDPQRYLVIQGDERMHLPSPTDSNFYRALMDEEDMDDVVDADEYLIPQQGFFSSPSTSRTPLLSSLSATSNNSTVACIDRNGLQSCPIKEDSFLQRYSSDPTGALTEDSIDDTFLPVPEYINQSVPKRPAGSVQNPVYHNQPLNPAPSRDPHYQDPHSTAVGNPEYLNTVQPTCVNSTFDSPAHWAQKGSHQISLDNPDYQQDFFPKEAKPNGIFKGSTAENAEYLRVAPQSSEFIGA
Protocol: as §1, §2

[8] = system: Ba/F3 cells expressing EGFR-WT; test: Cell anti-proliferation test 1 (CTG), BaF3 EGFR-WT; settings: Mus musculus, BaF3, 72 h, read-out: EGFR-WT IC50
[9] = system: PC9 cells expressing EGFR-T790M/Del19; test: Cell anti-proliferation test 2 (SRB), PC9 EGFR-T790M/Del19; type: cell-based; settings: Homo sapiens, PC-9, 72 hours
Protocol: (§3) • 1. […] Test information: • 2.1. […] Test method:
(§4) The test compounds were diluted by 5 times each time with an appropriate concentration as an initial concentration of the test, and totally diluted into 6 concentration gradients. […] SRB (Sulforhodamine B) detection method was used, and the optical density value of each well was read by a microplate reader at 490 nm wavelength.
(§5) The optical density of the cells at the drug action of 0 was set as a Tz value representing the value of the cells at the time that the drug was added. The optical density value of the cells after the solvent control DMSO acted for 72 hours was set as a C value. The optical density of the cells on which the test compounds acted for 72 hours was set as a Ti value. The response of the cells to the drug was calculated according to a method proposed by the U.S. NIH-NCI (National Institutes of Health-National Institute of Cancer): When Ti is more than or equal to Tz, the value was [(Ti−Tz)/(C−Tz)]×100; and when Ti is less than Tz, the value was [(Ti-Tz)/Tz]×100.

[10] = system: Ba/F3-EML-4-ALK-WT; test: Cell anti-proliferation test 3 (CTG), Ba/F3-EML-4-ALK-WT; type: cell-based; settings: Mus musculus, 72 h, BaF3 cells, Day 3
[11] = system: Ba/F3 cells expressing EGFR-C797S/T790M/Del19; test: Cell anti-proliferation test 1 (CTG), BaF3 EGFR-C797S/T790M/Del19; settings: Mus musculus, BaF3, 72 h, read-out: EGFR-C797S/T790M/Del19 IC50
[12] = target: EGFR-Del19 (Homo sapiens, UniProt P00533); test: Enzymatic activity test (ADP-Glo) EGFR-Del19; type: biochemical; settings: kinase
EGFR-Del19, sequence (P00533 25-1210 limits assumed): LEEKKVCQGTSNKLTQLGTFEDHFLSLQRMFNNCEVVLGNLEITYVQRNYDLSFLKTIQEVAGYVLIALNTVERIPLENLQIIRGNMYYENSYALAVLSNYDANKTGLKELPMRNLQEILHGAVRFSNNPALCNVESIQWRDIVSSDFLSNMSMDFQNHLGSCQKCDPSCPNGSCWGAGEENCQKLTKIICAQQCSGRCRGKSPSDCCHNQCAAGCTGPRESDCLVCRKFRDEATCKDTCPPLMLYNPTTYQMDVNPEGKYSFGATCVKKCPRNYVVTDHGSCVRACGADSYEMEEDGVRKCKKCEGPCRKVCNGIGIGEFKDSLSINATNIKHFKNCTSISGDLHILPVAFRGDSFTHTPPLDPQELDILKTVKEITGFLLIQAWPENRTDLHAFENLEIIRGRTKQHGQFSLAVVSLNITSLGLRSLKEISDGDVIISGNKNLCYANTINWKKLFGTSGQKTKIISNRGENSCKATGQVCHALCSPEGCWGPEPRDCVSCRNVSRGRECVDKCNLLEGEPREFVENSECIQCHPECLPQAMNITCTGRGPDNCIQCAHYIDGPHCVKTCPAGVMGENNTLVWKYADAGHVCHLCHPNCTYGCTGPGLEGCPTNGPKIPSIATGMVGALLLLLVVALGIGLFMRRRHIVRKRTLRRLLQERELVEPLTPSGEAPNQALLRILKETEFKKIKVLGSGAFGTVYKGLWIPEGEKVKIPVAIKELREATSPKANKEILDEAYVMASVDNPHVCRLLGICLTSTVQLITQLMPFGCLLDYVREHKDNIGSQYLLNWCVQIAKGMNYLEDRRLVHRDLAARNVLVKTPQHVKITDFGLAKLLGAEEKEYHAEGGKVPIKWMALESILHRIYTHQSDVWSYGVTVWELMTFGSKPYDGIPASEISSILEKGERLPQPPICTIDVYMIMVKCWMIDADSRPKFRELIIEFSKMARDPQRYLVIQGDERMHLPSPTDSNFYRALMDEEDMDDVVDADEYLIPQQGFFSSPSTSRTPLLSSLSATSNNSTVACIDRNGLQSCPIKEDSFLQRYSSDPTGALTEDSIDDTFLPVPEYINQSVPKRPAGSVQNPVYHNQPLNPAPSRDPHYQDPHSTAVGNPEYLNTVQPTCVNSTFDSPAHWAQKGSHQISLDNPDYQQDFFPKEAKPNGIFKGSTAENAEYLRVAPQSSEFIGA
Protocol: as §1, §2

[13] = system: PC9 cells expressing EGFR-C797S/T790M/Del19; test: Cell anti-proliferation test 2 (SRB), PC9 EGFR-C797S/T790M/Del19; type: cell-based; settings: Homo sapiens, PC-9, 72 hours
Protocol: as §3, §4, §5

[14] = target: EGFR-WT (Homo sapiens (Human), UniProt P00533); test: Enzymatic activity test (ADP-Glo) EGFR-WT; type: biochemical; settings: kinase
EGFR-WT, sequence (P00533 25-1210): as the sequence (P00533 25-1210 limits assumed) above
Protocol: as §1, §2

[15] = target: EGFR-T790M/Del19 (Homo sapiens, UniProt P00533, T790M, form not given); test: Enzymatic activity test (ADP-Glo) EGFR-T790M/Del19; type: biochemical; settings: kinase
Protocol: as §1, §2

[16] = system: PC9 cells expressing EGFR-Del19; test: Cell anti-proliferation test 2 (SRB), PC9 EGFR-Del19; type: cell-based; settings: Homo sapiens, PC-9, 72 hours
Protocol: as §3, §4, §5

| Compound | IC50 [1] [nM] | IC50 [2] [nM] | IC50 [3] [nM] | IC50 [4] [nM] | IC50 [5] [nM] | IC50 [6] [nM] | IC50 [7] [nM] | IC50 [8] [nM] | GI50 [9] [nM] | IC50 [10] [nM] | IC50 [11] [nM] | IC50 [12] [nM] | GI50 [13] [nM] | IC50 [14] [nM] | IC50 [15] [nM] | GI50 [16] [nM] |
| --- | --- | --- | --- | --- | --- | --- | --- | --- | --- | --- | --- | --- | --- | --- | --- | --- |
| COc1cc(N2CCC(N3CCN(C)CC3)CC2)c(C)cc1Nc1ncc(Cl)c(Nc2ccc(C)cc2P(C)(C)=O)n1 [Compound 1] | 14.6 | 22.2 | 48.3 | 24.4 | 14.9 | 96.9 | 13.9 | 1290 | 17.5 | 12.1 | 21.5 | 20.6 | 19 | 95.4 | 4.1 | 57.5 |
| COc1cc(N2CCC(N(C)C)CC2)c(C)cc1Nc1ncc(Cl)c(Nc2ccc(C)cc2P(C)(C)=O)n1 [Compound 5] | 38.1 | 30 | 55.9 | 15.6 | 16.3 | 119 | 40.6 | 1780 | 15.9 | 6.5 | 26.8 | 37.1 | 23.6 | 113 | 1.9 | 42.6 |
| COc1cc(N2CCC(N3CCN(C)CC3)CC2)c(C)cc1Nc1ncc(Br)c(Nc2cc(C)ccc2P(C)(C)=O)n1 [Compound 9] | 24.1 | 39.9 |  |  |  | 186 |  | 1890 |  |  | 34.2 | 46.1 |  | 162 | 11 |  |
| COc1cc(N2CCC(N3CCN(C)CC3)CC2)c(C)cc1Nc1ncc(Br)c(Nc2ccc(F)cc2P(C)(C)=O)n1 [Compound 11] | 17.3 | 12.7 | 21.6 | 17.1 | 31.2 | 82.6 | 24.9 | 1090 | 14.6 | 9.4 | 19 | 27.4 | 10.9 | 98.6 | 3.4 | 43.9 |
| CCc1cc(Nc2ncc(Br)c(Nc3ccc(C)cc3P(C)(C)=O)n2)c(OC)cc1N1CCC(N2CCN(C)CC2)CC1 [Compound 12] | 8.1 | 16.9 | 24.6 | 12.5 | 21.3 | 37.1 | 20.5 | 785 | 13.4 | 10.1 | 13.5 | 33.7 | 9.7 | 160 | 6.9 | 35.6 |
| Cc1ccc(Nc2nc(Nc3cc(C)c(N4CCC(N5CCN(C)CC5)CC4)cc3OC(F)F)ncc2Br)c(P(C)(C)=O)c1 [Compound 24] | 23.5 | 54 |  |  |  | 54 |  | 887 |  |  | 24.5 |  |  |  |  |  |
| COc1cc(N2CCC(N3CCN(C)CC3)CC2)c(Br)cc1Nc1ncc(Br)c(Nc2ccc(C)cc2P(C)(C)=O)n1 [Compound 32] | 3.8 | 15.9 | 16.9 | 14.3 | 13.7 | 85.9 | 18.7 | 806 |  | 8.9 | 22.7 | 19.6 |  | 131 | 8.9 |  |
| COc1cc(N2CCC(N3CCN(C)CC3)CC2)c(C)cc1Nc1ncc(Cl)c(Nc2ccccc2P(C)(C)=O)n1 [Control compound 2, reference compound] | 172 | > 250 |  | 47.4 | > 250 | 583 | > 250 | 1760 | 289 | 43.6 | 221 | > 250 | 316 | > 250 | > 250 | 262 |
| COc1cc(N2CCC(N3CCN(C)CC3)CC2)ccc1Nc1ncc(Cl)c(Nc2ccc(C)cc2P(C)(C)=O)n1 [Control compound 3, reference compound] | 216 | > 250 |  | 50.2 | 106 | 566 | > 250 | 2340 | 389 | 39.4 | 192 | > 250 | 502 | > 250 | > 250 | 368 |
